# The supplement of paper PMC8728848
# The list shows a part of the results.
# What was measured:
# Assay in all cases: glycan array binding signal (z-score within array); higher = stronger binding
# Details in all cases: glycan notation: IUPAC condensed, linker removed
# [1] = target: Man(a1-3)[Man(a1-6)]Man(a1-6)[Man(a1-3)]Man
# Method in brief: (§1)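 Negative Z-scores can be read as non-binding. The Z-score is calculated within each array and then averaged across arrays of one protein sequence at different concentrations or buffers and across linkers. Arrays, 3228 in all, were curated from the Consortium for Functional Glycomics database and kept only where the protein sequence was available.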
# [2] = target: Man(a1-3)[Man(a1-6)]Man(a1-6)[Man(a1-3)]Man(b1-4)GlcNAc(b1-4)GlcNAc
# Method in brief: as §1
# [3] = target: Man(a1-3)[Man(a1-6)]Man(b1-4)GlcNAc(b1-4)GlcNAc
# Method in brief: as §1
# [4] = target: Man(a1-3)[Man(a1-6)]Man(b1-4)GlcNAc(b1-4)[Fuc(a1-6)]GlcNAc
# Method in brief: as §1
# [5] = target: Man(a1-6)Man
# Method in brief: as §1
# [6] = target: Man(b1-4)GlcNAc
# Method in brief: as §1
# [7] = target: MurNAc(b1-4)GlcNAc
# Method in brief: as §1
# [8] = target: Neu5Ac(a2-3)Gal
# Method in brief: as §1
# [9] = target: Neu5Ac(a2-3)Gal(b1-3)GalNAc
# Method in brief: as §1
# [10] = target: Neu5Ac(a2-3)Gal(b1-3)GalNAc(b1-3)Gal(a1-4)Gal(b1-4)Glc
# Method in brief: as §1
# [11] = target: Neu5Ac(a2-3)Gal(b1-3)GalNAc(b1-4)[Neu5Ac(a2-3)]Gal(b1-4)Glc
# Method in brief: as §1
# [12] = target: Neu5Ac(a2-3)Gal(b1-3)GalNAc(b1-4)[Neu5Ac(a2-8)Neu5Ac(a2-3)]Gal(b1-4)Glc
# Method in brief: as §1
# [13] = target: Neu5Ac(a2-3)Gal(b1-3)GalNAc6S
# Method in brief: as §1
# [14] = target: Neu5Ac(a2-3)Gal(b1-3)GlcNAc
# Method in brief: as §1
# [15] = target: Neu5Ac(a2-3)Gal(b1-3)GlcNAc(b1-2)Man
# Method in brief: as §1
# [16] = target: Neu5Ac(a2-3)Gal(b1-3)GlcNAc(b1-2)Man(a1-3)[GlcNAc(b1-4)][Neu5Ac(a2-3)Gal(b1-3)GlcNAc(b1-2)Man(a1-6)]Man(b1-4)GlcNAc(b1-4)GlcNAc
# Method in brief: as §1
# [17] = target: Neu5Ac(a2-3)Gal(b1-3)GlcNAc(b1-2)Man(a1-3)[Neu5Ac(a2-3)Gal(b1-3)GlcNAc(b1-2)Man(a1-6)]Man(b1-4)GlcNAc(b1-4)GlcNAc
# Method in brief: as §1
# [18] = target: Neu5Ac(a2-3)Gal(b1-3)GlcNAc(b1-3)Gal(b1-3)GlcNAc
# Method in brief: as §1
# [19] = target: Neu5Ac(a2-3)Gal(b1-3)GlcNAc(b1-3)Gal(b1-4)GlcNAc
# Method in brief: as §1
# [20] = target: Neu5Ac(a2-3)Gal(b1-3)GlcNAc(b1-3)GalNAc
# Method in brief: as §1
# [21] = target: Neu5Ac(a2-3)Gal(b1-3)GlcNAc(b1-4)Gal(b1-4)Glc
# Method in brief: as §1
# [22] = target: Neu5Ac(a2-3)Gal(b1-3)GlcNAc(b1-6)GalNAc
# Method in brief: as §1
# [23] = target: Neu5Ac(a2-3)Gal(b1-3)GlcNAc6S
# Method in brief: as §1
# [24] = target: Neu5Ac(a2-3)Gal(b1-3)[Fuc(a1-4)]GlcNAc
# Method in brief: as §1
# [25] = target: Neu5Ac(a2-3)Gal(b1-3)[Fuc(a1-4)]GlcNAc(b1-3)Gal(b1-3)[Fuc(a1-4)]GlcNAc
# Method in brief: as §1
# [26] = target: Neu5Ac(a2-3)Gal(b1-3)[Fuc(a1-4)]GlcNAc(b1-3)Gal(b1-4)[Fuc(a1-3)]GlcNAc
# Method in brief: as §1
# [27] = target: Neu5Ac(a2-3)Gal(b1-3)[GlcNAc(b1-6)]GalNAc
# Method in brief: as §1
# [28] = target: Neu5Ac(a2-3)Gal(b1-3)[Neu5Ac(a2-6)]GalNAc
# Method in brief: as §1
# [29] = target: Neu5Ac(a2-3)Gal(b1-3)[Neu5Ac(a2-6)]GlcNAc(b1-3)[Fuc(a1-3)[Gal(b1-4)]GlcNAc(b1-6)]Gal(b1-4)Glc
# Method in brief: as §1
# [30] = target: Neu5Ac(a2-3)Gal(b1-3)]Neu5Ac(a2-3)Gal(b1-4)]GlcNAc
# Method in brief: as §1
# [31] = target: Neu5Ac(a2-3)Gal(b1-4)Glc
# Method in brief: as §1
# [32] = target: Neu5Ac(a2-3)Gal(b1-4)GlcNAc
# Method in brief: as §1
# [33] = target: Neu5Ac(a2-3)Gal(b1-4)GlcNAc(b1-2)Man
# Method in brief: as §1
# [34] = target: Neu5Ac(a2-3)Gal(b1-4)GlcNAc(b1-2)Man(a1-3)[GlcNAc(b1-4)][Neu5Ac(a2-3)Gal(b1-4)GlcNAc(b1-2)Man(a1-6)]Man(b1-4)GlcNAc(b1-4)GlcNAc
# Method in brief: as §1
# [35] = target: Neu5Ac(a2-3)Gal(b1-4)GlcNAc(b1-2)Man(a1-3)[Neu5Ac(a2-3)Gal(b1-4)GlcNAc(b1-2)Man(a1-6)]Man(b1-4)GlcNAc(b1-4)GlcNAc
# Method in brief: as §1
# [36] = target: Neu5Ac(a2-3)Gal(b1-4)GlcNAc(b1-2)Man(a1-3)[Neu5Ac(a2-3)Gal(b1-4)GlcNAc(b1-2)Man(a1-6)]Man(b1-4)GlcNAc(b1-4)[Fuc(a1-6)]GlcNAc
# Method in brief: as §1
# [37] = target: Neu5Ac(a2-3)Gal(b1-4)GlcNAc(b1-2)Man(a1-3)[Neu5Ac(a2-6)Gal(b1-4)GlcNAc(b1-2)Man(a1-6)]Man(b1-4)GlcNAc(b1-4)GlcNAc
# Method in brief: as §1
# [38] = target: Neu5Ac(a2-3)Gal(b1-4)GlcNAc(b1-2)[Neu5Ac(a2-3)Gal(b1-4)GlcNAc(b1-4)]Man(a1-3)[GlcNAc(b1-4)][Neu5Ac(a2-3)Gal(b1-4)GlcNAc(b1-2)[Neu5Ac(a2-3)Gal(b1-4)GlcNAc(b1-6)]Man(a1-6)]Man(b1-4)GlcNAc(b1-4)GlcNAc
# Method in brief: as §1
binder,measurement,setting,value
PX9961X-pdi-531-24-531 (Parabacteroides distasonis) (protein) DLTEEIHSSVIAENYYNNAGEVMAAMMRPWGHFCGTMQVAQSPWSCNELSSDCAAWPQKGRHGYDNGDWIRLHRHQWIPTDGQVVDAWKKLFEGIGYANNFLTDTENIDFEALQVPMSKAQAQAEMRVYRAYCYWYVMDMFGTAPICEKIGEINPSSKSRAELFAWIEKELNESIPSLSESKTETYGRVSKWGAYALLARLYLNAEIYTGQARWDDCIAACDELAKGGFALDKKWNDTFRADNDKRSTEIIWSIVYDEVYAKGMGWYQRWLHYAHQTGWDLQSGPWNGLVTQPTFYDSFADNDLRKIEGFLIGKQYPRKVDENGNYYYDTTAEPLKGSEEYNGQDLVFVNYIKSMTEGEENSGARSIKYEIQPGTTGDMNNDWVMFRYSEVIYNKAEALMRKNGGKATQEVVDMINSVRQRSFKAEDWEKAKYTTATLTMDEFLAEKGREFAFEGIRRTDLVRFNKFVTTSWWDKTASNEPKRNIFPIPQRQLDANANLSPNEANSLF,glycan array binding signal (z-score),[1],0.49
same,glycan array binding signal (z-score),[2],-0.382
same,glycan array binding signal (z-score),[3],-0.64
same,glycan array binding signal (z-score),[4],-0.897
same,glycan array binding signal (z-score),[5],0.002
same,glycan array binding signal (z-score),[6],0.081
same,glycan array binding signal (z-score),[7],-0.562
same,glycan array binding signal (z-score),[8],-0.889
same,glycan array binding signal (z-score),[9],-0.127
same,glycan array binding signal (z-score),[10],-0.098
same,glycan array binding signal (z-score),[11],-0.471
same,glycan array binding signal (z-score),[12],0.292
same,glycan array binding signal (z-score),[13],-0.9
same,glycan array binding signal (z-score),[14],-0.482
same,glycan array binding signal (z-score),[15],-0.3
same,glycan array binding signal (z-score),[16],-0.305
same,glycan array binding signal (z-score),[17],0.812
same,glycan array binding signal (z-score),[18],-0.773
same,glycan array binding signal (z-score),[19],-0.692
same,glycan array binding signal (z-score),[20],-0.825
same,glycan array binding signal (z-score),[21],-0.299
same,glycan array binding signal (z-score),[22],0.382
same,glycan array binding signal (z-score),[23],0.246
same,glycan array binding signal (z-score),[24],-0.686
same,glycan array binding signal (z-score),[25],0.406
same,glycan array binding signal (z-score),[26],0.499
same,glycan array binding signal (z-score),[27],-0.585
same,glycan array binding signal (z-score),[28],-0.684
same,glycan array binding signal (z-score),[29],0.188
same,glycan array binding signal (z-score),[30],-0.257
same,glycan array binding signal (z-score),[31],-0.314
same,glycan array binding signal (z-score),[32],-0.205
same,glycan array binding signal (z-score),[33],0.345
same,glycan array binding signal (z-score),[34],-0.411
same,glycan array binding signal (z-score),[35],-0.661
same,glycan array binding signal (z-score),[36],0.262
same,glycan array binding signal (z-score),[37],-0.499
same,glycan array binding signal (z-score),[38],-0.867
